From PubChem BioAssay AID493208 (National Center for Advancing Translational Sciences (NCATS), 2011)
Screen size: about 44,000 compounds; about 340 (0.77%) were called active. Another 5% or so got no clear call; they are omitted. The call rests on the fitted dose curve; in most records, active means well fitted inhibition curve with a large enough effect; inconclusive means small, poorly fitted or top-dose-only effect; inactive means flat fitted curve, though single readings scatter. This is one part of the list.

Experiment: Acumen qHTS Assay for Inhibitors of the mTORC1 Signaling Pathway in MEF (Tsc2-/-, p53-/-) Cells: Sytravon; further: nearly all actives have a fitted effect of over 50% in size
Details: phospho-rpS6 immunofluorescence/PI, 24 h; series mostly up to 38.3 µM; activity change, negative = inhibition: at the top concentration
Excerpt: NIH Molecular Libraries Probe Production Centers Network [MLPCN] NIH Chemical Genomics Center [NCGC] MLPCN Grant: NS059428-01 Assay Submitter (PI): Blenis, John; Hoffman, Greg; Harvard University NCGC Assay Overview: The mammalian target of rapamycin (mTOR) is an intracellular serine/threonine kinase Aberrant regulation of mTOR signaling plays a causative role in a number of human diseases, including cancer, benign tumors such as lymphangioleiomyomatosis (LAM) and Tuberous Sclerosis Complex (TSC), and metabolic diseases such as diabetes and obesity. This project aims to identify inhibitors of ribosomal protein S6 (rpS6) phosphorylation. The phosphorylation of rpS6 is a key event downstream of mTOR activation. The assay uses a phospho-specific antibody of phospho-rpS6 to detect inhibitors of mTOR activation. Mutations in the Tsc1 and Tsc2 genes are the underlying genetic lesions responsible for TSC, causing constitutive activation of the mTORC1 pathway and leading to profound effects on cell metabolism. Aberrant metabolism in cancer has recently received significant attention as a target to develop therapeutic agents in the treatment of cancer.1 As Tsc2-/- cells have lost the ability to respond to energy and growth factor deprivation, these cells are unable to properly down regulate cellular biosynthetic processes in response to metabolic stress, and are thus extremely sensitive to glucose deprivation-induced death.2 A central goal of this project is to explore the unique cell survival and metabolic properties of cells with Tsc1 or Tsc2 by screening for compounds that selectively target the Tsc2-/- MEFs by screening both Tsc2-/- and WT MEF cell lines. We hope to better understand these aspects of TSC physiology in order to exploit them for therapeutic benefit.
NCGC Acumen Assay Protocol Summary: For quantitative high throughput analysis of mTORC1 signaling, we developed a cell-based assay for immuno-fluorescence based detection of rpS6 phosphorylation on the Acumen Explorer that will be used a platform for the primary small molecule screen. Mouse embryonic fibroblasts (MEFs) are cultured in 1536-well plates using DMEM + 10% FBS. Twenty-four hrs after plating, test compounds (solubilized in DMSO) are delivered and incubated with the cells for 24 hrs at 37 degree Celsius. Following the incubation, media with compound is aspirated and the cells are fixed in 4% paraformaldehyde (PFA) containing PBS + 0.2% TX-100. Next, PFA is aspirated, cells are washed two times with PBS plus 0.2% TX-100 and the cells are blocked for 1 hr at room temperature (blocking buffer: LiCOR Blocking Buffer plus 0.2% TX-100). […] Cells are washed two times with PBS plus 0.2% TX-100, and stained with 10 uM propidium iodide (PI) for 20-25 minutes for cell number measurement (1:500 dilution of Hoescht staining is also added for IN Cell imaging). The plates are scanned on the Acumen Explorer laser scanning instrument (TTP Labtech) using the 488nm laser for simultaneous excitation of the Alexa-488 and PI. […] The normalized phospho-S6 staining is calculated as the ratio of the integrated Alexa 488 intensity divided by the integrated PI intensity for the single concentration rapamycin control (7.5 nM) and DMSO columns. […] Inhibition of the pathway is defined based on the normalized phospho-S6 intensity in rapamycin treated cells. Active cells are defined as those with a normalized phospho-S6 staining above this threshold, and each treatment is reported as the % positive cells in the well, where thresholds are defined by selecting wells with the highest and lowest signal and differentiating between the % non-active and % active populations. In addition to the pathway specific phospho-S6 endpoint, the number of PI stained cells from the Acumen is recorded as a measure of cell viability. The primary screen was performed with a MEF cell line in a defined genetic background, Tsc2-/-, p53-/- cell line stably transfected with an empty vector control (Tsc2-/- MEF).

Row | SMILES | activity change, negative = inhibition
1 | Cc1c(C(=O)Nc2ccccc2Cl)sc2ncnc(N(C)C3CCCCC3)c12 | inactive: -1.33%
2 | CCc1ccc(CNC(=O)C2CCCN(c3nnc(C)c4c(C)n(-c5ccc(OC)cc5)nc34)C2)cc1 (configuration not stated) | inactive: -0.724%
3 | Cc1ccc(N2CC(c3nnc(Cc4ccc(F)cc4)o3)CC2=O)cc1 (configuration not stated) | inactive: -1.37%
4 | CC(CCc1ccccc1)NC(=O)Cn1c(=O)nc(-c2ccccc2F)c2cc(Cl)ccc21 (configuration not stated) | inactive: 7.65%
5 | COc1ccc(Cn2ccnc2SCC(=O)NC2CCCC2)cc1 | inactive: 2.69%
6 | Cc1oc(-c2ccccc2F)nc1CSCC(=O)NCc1ccccc1 | inactive: 1.95%
7 | Cc1cccc(C)c1NC(=O)CSc1ncc2c(n1)-c1ccc(Cl)cc1N(Cc1ccccc1)S2(=O)=O | inactive: 2.32%
8 | CC(C)c1ccc(NC(=O)C2CCCN(S(=O)(=O)c3cccc4nsnc34)C2)cc1 (configuration not stated) | inactive: -14.2%
9 | COc1ccc2c(c1)CC(C(=O)Nc1cccc(C)c1C)CO2 (configuration not stated) | inactive: -3.22%
10 | COC(=O)c1ccc(NS(=O)(=O)c2c(C)nc3sccn3c2=O)cc1 | inactive: 3.59%
11 | COc1cccc(-n2ccnc2SCC(=O)Nc2ccc(Cl)c(Cl)c2)c1 | inactive: -19.3%
12 | CCOC(=O)Cn1c(=O)n(C2CCCCC2)c2nc(-c3ccc(OCC)cc3)nc(C(N)=O)c21 | inactive: -2.53%
13 | COc1ccc(C2CC(=O)c3cnc4c(-c5ccccc5)c(C)nn4c3C2)cc1OC (configuration not stated) | inactive: -8.11%
14 | CSc1ccc(CCNC(=O)c2ccc3c(c2)nc2n3CCCCC2)cc1 | inactive: -12%
15 | O=C(CSc1nccn1-c1ccc(Cl)cc1)Nc1cccc2ccccc12 | inactive: -7.33%
16 | Cc1c(-c2cccc(NC(=O)c3ccc(F)c(F)c3)c2)nc2ncccn12 | inactive: -5.09%
17 | Cc1nn(C)c2c1c(C(F)(F)F)cc(=O)n2C(C)C(=O)NCCc1ccc(Cl)cc1 (configuration not stated) | inactive: -3.83%
18 | CCc1ccccc1NS(=O)(=O)c1ccc2oc(=O)c3ncn(C)c3c2c1 | inactive: 1.41%
19 | N#Cc1ccc(C(=O)Nc2ccccc2-c2nc3ccccc3s2)c(F)c1 | inactive: -1.56%
20 | CCOC(=O)Cc1ccc(NC(=O)n2ncc3cc(Cl)ccc32)cc1 | inactive: 2.17%
21 | CNS(=O)(=O)c1ccc(NC(=O)c2cnn3c(C(F)F)cc(-c4ccccc4)nc23)cc1 | inactive: 2.57%
22 | CCOC(=O)c1cnc2c(Cl)c(Cl)ccc2c1NCCN1CCOCC1 | inactive: 4.31%
23 | Cc1ccc(NC(=O)c2c(C)oc3ccc(O)c(CN4CCCC4)c23)c(C)c1 | inactive: 4.86%
24 | CCc1ccc(NC(=O)C2CCCN(c3nn4cc(-c5ccc(OC)cc5)nc4s3)C2)cc1 (configuration not stated) | inactive: -5.81%

Row | SMILES | activity change, negative = inhibition
25 | O=C(Nc1ccc(F)cc1Cl)C1CCN(c2ncnc3c2nc2n3CCCCC2)CC1 | inactive: -3.2%
26 | O=C(NCC(c1ccc2c(c1)OCO2)N1CCN(c2ccc(F)cc2)CC1)c1cccc([N+](=O)[O-])c1 (configuration not stated) | inactive: -2.41%
27 | Cc1ccc2onc(CNC(=O)Nc3ccccc3C#N)c2c1 | inactive: 3.4%
28 | COc1ccc(Nc2ncnc3c2c(-c2ccccc2)cn3-c2ccc(C)c(Cl)c2)cc1OC | inactive: 9.58%
29 | CCc1ccccc1NC(=O)CSc1ncccc1C(=O)O | inactive: 7.26%
30 | COc1cccc(CNC(=O)CCc2c(C)nc3c(c2C)c(=O)n(C)c(=O)n3C)c1 | inactive: -5.69%
31 | Cc1cccc(NC(=O)CSC2=Nc3ccccc3C3=NC(CCC(=O)NCc4ccc(F)cc4)C(=O)N23)c1 (configuration not stated) | inactive: 1.6%
32 | CC(=O)c1ccc(NS(=O)(=O)c2cnc(N)nc2)cc1 | inactive: -3.92%
33 | CCOc1ccccc1NC(=O)Cc1csc(COc2cccc(C)c2)n1 | inactive: -22.1%
34 | O=C(NCCc1ccc(Cl)cc1)c1ccc(Cn2c(=O)[nH]c3ccccc3c2=O)cc1 | inactive: -19.3%
35 | CC(=O)c1cccc(Nc2ncnc3c2cnn3C)c1 | inactive: 12.3%
36 | Cc1ccc(-n2c3c(c(=O)[nH]c2=O)C(NS(=O)(=O)c2ccc(C)cc2)(C(F)(F)F)C(=O)N3)cc1 (configuration not stated) | inactive: -13.2%
37 | COc1ccc2[nH]cc(CCNC(=O)Nc3cccc(F)c3)c2c1 | inactive: 3.82%
38 | CCOc1ccc(CN2C(=O)c3ccccc3Sc3ccc(C(=O)NCCc4ccccc4)cc32)cc1 | inactive: -14.2%
39 | COC(=O)c1c(NC(=O)COc2c(C)cccc2C)sc2c1CCCC2 | inactive: 9.43%
40 | CC1CCN(S(=O)(=O)c2ccc(C(=O)Nc3nc4ccc(F)cc4s3)cc2)CC1 | inactive: -6%
41 | CCOc1ccccc1NC(=O)c1cc2cc(C)ccc2n1C | inactive: -20.8%
42 | CCc1ccc(NC(=O)C2CCC(CNS(=O)(=O)c3cccs3)CC2)cc1 (configuration not stated) | inactive: -2.45%
43 | COc1cccc(CNC(=O)c2ccc3c(c2)N(C)C(=O)C2CCCCN32)c1 (configuration not stated) | inactive: -11.4%
44 | COc1ccc(-c2nc(SCC(=O)Nc3ccc4c(c3)OCO4)c(-c3ccccc3)[nH]2)cc1 | inactive: -4.52%
45 | COc1ccccc1NC(=O)C1=C(C)Nc2nc(-c3ccco3)nn2C1c1ccccc1 (configuration not stated) | inactive: 3.56%
46 | Cc1ccccc1NC(=O)c1c(NC(=O)c2ccncc2)sc2c1CCC(C(C)(C)C)C2 (configuration not stated) | inactive: -0.334%
47 | COc1ccc(Nc2nc3c(S(=O)(=O)c4ccc(Br)cc4)nnn3c3ccsc23)c(OC)c1 | inactive: -3.61%
